In PubChem BioAssay (NCI):
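Values below derive from 48-hour exposures of cells grown in 96-well plates, with endpoints linearly interpolated between the two concentrations bracketing the appropriate inhibition level. GI50 marks 50% less growth. TGI: total growth inhibition.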

What follows are molecules tested on NCI-H322M lung (assay: inhibition of tumour cell growth, NCI panel, 48 h).
In the case of `O=C(c1ccc(O)cc1)C1[C@H](c2ccc(Cl)cc2)[C@@H](c2ccccc2)NC12C(=O)Nc1ccc(Br)cc12` (stereo not given in full), the GI50 was 13.5 µM and the TGI was 26.3 µM. Work on `CC1(C)CC[C@]2(C(=O)Nc3ccc(Br)cc3)CC[C@]3(C)C(=CCC4[C@@]5(C)C[C@@H](O)[C@H](O)[C@@](C)(CO)C5CC[C@]43C)C2C1` (stereo not given in full) yielded a GI50 of 21.6 µM and a TGI of 63 µM. Work on `O=c1oc2ccc(-c3ccc(F)cc3F)cc2c(=O)n1-c1ccc(Cl)c(C(F)(F)F)c1` yielded a GI50 of 3.14 µM and a TGI of 10.3 µM. `O=C1c2c(c3c4cc(F)ccc4oc3c3[nH]c4ccc(Br)cc4c23)C(=O)N1O` showed a GI50 of 50.7 µM and a TGI of over 100 µM. `COc1cc2c(cc1OC)CN(CCCCOc1cc(O)c3c(=O)cc(-c4ccccc4)oc3c1)CC2` was tested, and the GI50 was 42.8 µM and the TGI was over 100 µM.
